Laboratory results from the supplement of paper PMC4967469.
Lines with a small IC50 respond at low doses; fits outside the tested doses are given as limits. AUC is the area under the same curve over the 256-fold range up to the top dose, as a fraction: 1 means no effect, lower means more sensitive. For some assays here: Where the top dose is marked as inferred, it was calculated from the reported fits.

How the values were obtained:
Experiment in all cases: Viability of human cancer cell lines after 72 h of drug (GDSC screen)
Trametinib = compound: CC(=O)Nc1cccc(-n2c(=O)n(C3CC3)c(=O)c3c(Nc4ccc(I)cc4F)n(C)c(=O)c(C)c32)c1 [Trametinib]; settings: top dose 1 µM
Description: (§1)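 Human cancer cell lines in 384-well plates, medium with 10% serum, drug for 72 h over a 256-fold dose range (nine 2-fold or five 4-fold steps up to the top dose). Adherent lines were fixed and stained with the nucleic acid dye Syto60, suspension lines read with resazurin; signal relative to control wells, capped at 0 and 100%. One two-parameter sigmoid per drug and line, fitted in a mixed model over all curves with the slope shared within a line.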

HG-6-64-1 = compound: CCN1CCN(Cc2ccc(NC(=O)c3ccc(C)c(/C=C/c4cnc5[nH]ccc5c4OC)c3)cc2C(F)(F)F)CC1 [HG-6-64-1]; settings: top dose 5.12 µM; top dose inferred
Description: as §1

PF-4708671 = compound: CCc1cncnc1N1CCN(Cc2nc3ccc(C(F)(F)F)cc3[nH]2)CC1 [PF-4708671]; settings: top dose 10 µM; top dose inferred
Description: as §1

AV-951 = compound: COc1cc2nccc(Oc3ccc(NC(=O)Nc4cc(C)on4)c(Cl)c3)c2cc1OC [AV-951]; settings: top dose 0.128 µM; top dose inferred
Description: as §1

KIN001-244 = compound: O=C(NC(COc1ccc2[nH]c(=O)[nH]c2c1)c1ccccc1)c1cccn(Cc2ccc(F)c(F)c2)c1=O [KIN001-244]; settings: top dose 20 µM; top dose inferred
Description: as §1

I-BET-762 = compound: CCNC(=O)C[C@@H]1N=C(c2ccc(Cl)cc2)c2cc(OC)ccc2-n2c(C)nnc21 [I-BET-762]; settings: top dose 20 µM; top dose inferred
Description: as §1

Row | Cell Line | AUC (Trametinib) | IC50 (Trametinib) [nM] | AUC (HG-6-64-1) | IC50 (HG-6-64-1) [nM] | AUC (PF-4708671) | IC50 (PF-4708671) [nM] | AUC (AV-951) | IC50 (AV-951) [nM] | AUC (KIN001-244) | IC50 (KIN001-244) [nM] | AUC (I-BET-762) | IC50 (I-BET-762) [nM]
1 | Caov-4 (ovary, adherent) | 0.441 | 40 | 0.954 | > 5120 | 0.98 | > 10000 | 0.972 | > 128 | 0.898 | > 20000 |  | 
2 | DU-145 (prostate, adherent) | 0.489 | 57.9 | 0.661 | 947 | 0.951 | > 10000 | 0.985 | > 128 | 0.881 | > 20000 |  | 
3 | G-292 Clone A141B1 (osteosarcoma, adherent) | 0.612 | 152 | 0.645 | 1030 |  |  | 0.942 | > 128 | 0.959 | > 20000 | 0.931 | > 20000
4 | G-MEL (melanoma, adherent) | 0.029 | < 3.91 | 0.627 | 714 |  |  | 0.986 | > 128 | 0.895 | > 20000 | 0.959 | > 20000
5 | HCC-78 (lung adenocarcinoma, adherent) | 0.637 | 160 | 0.976 | > 5120 |  |  | 0.97 | > 128 | 0.918 | > 20000 | 0.983 | > 20000
6 | HL-60 (acute myeloid leukaemia, suspension) | 0.872 | 785 | 0.799 | 2170 | 0.99 | > 10000 | 0.99 | > 128 | 0.836 | 11400 |  | 
7 | HSC-2 (head and neck, adherent) | 0.743 | 289 | 0.714 | 1220 |  |  | 0.987 | > 128 | 0.966 | > 20000 | 0.971 | > 20000
8 | IGR-37 (melanoma, adherent) | 0.031 | < 3.91 | 0.768 | 1760 | 0.986 | > 10000 |  |  | 0.78 | 7480 | 0.957 | > 20000
9 | LN-405 (glioma, adherent) | 0.926 | > 1000 | 0.774 | 2550 |  |  | 0.973 | > 128 | 0.925 | > 20000 | 0.957 | > 20000
10 | LoVo (large intestine, adherent) | 0.464 | 49.8 | 0.552 | 445 |  |  | 0.985 | > 128 | 0.882 | > 20000 | 0.978 | > 20000
11 | MDA-MB-330 (breast, adherent) | 0.967 | > 1000 | 0.798 | 2850 |  |  | 0.986 | > 128 | 0.917 | > 20000 | 0.838 | 16300
12 | MDA-MB-415 (breast, adherent) | 0.874 | > 1000 | 0.858 | > 5120 |  |  | 0.983 | > 128 | 0.901 | > 20000 | 0.983 | > 20000
13 | MDA-MB-453 (breast, adherent) | 0.916 | > 1000 | 0.968 | > 5120 |  |  | 0.985 | > 128 | 0.845 | 16900 | 0.652 | 3470
14 | MKN45 (stomach, adherent) | 0.432 | 38.9 | 0.873 | > 5120 | 0.944 | > 10000 | 0.98 | > 128 | 0.93 | > 20000 |  | 
15 | MV-4-11 (leukaemia, suspension) | 0.328 | 22.9 | 0.203 | 52.8 | 0.874 | 6830 | 0.919 | > 128 | 0.846 | 10900 |  | 
16 | NCI-H838 (lung adenocarcinoma, adherent) | 0.855 | 848 | 0.814 | 2940 |  |  | 0.986 | > 128 | 0.905 | > 20000 | 0.954 | > 20000
17 | P12-ICHIKAWA (T-cell lymphoblastic leukaemia, suspension) | 0.994 | > 1000 | 0.907 | 4150 | 0.926 | 9810 | 0.994 | > 128 | 0.832 | 8990 |  | 
18 | PC-3 (prostate, adherent) | 0.98 | > 1000 | 0.964 | > 5120 | 0.96 | > 10000 | 0.976 | > 128 | 0.822 | 15200 |  | 
19 | RH-41 (rhabdomyosarcoma, adherent) | 0.943 | > 1000 | 0.81 | 2180 | 0.981 | > 10000 | 0.992 | > 128 | 0.965 | > 20000 |  | 
20 | RMG-I (ovary, adherent) | 0.251 | 10.5 | 0.858 | > 5120 |  |  | 0.979 | > 128 | 0.83 | 15500 | 0.837 | 16700
21 | SBC-3 (small cell lung carcinoma, adherent) | 0.879 | 868 | 0.796 | 2160 | 0.968 | > 10000 |  |  | 0.876 | 16800 | 0.616 | 2520
22 | SK-OV-3 (ovary, adherent) | 0.82 | 775 | 0.664 | 1030 |  |  | 0.969 | > 128 | 0.844 | > 20000 | 0.79 | 11600
23 | SNU-398 (liver, adherent) | 0.814 | 572 | 0.326 | 102 |  |  | 0.984 | > 128 | 0.715 | 5200 | 0.89 | > 20000
24 | SiHa (cervix, adherent) | 0.912 | > 1000 | 0.819 | 3490 |  |  | 0.987 | > 128 | 0.987 | > 20000 | 0.987 | > 20000
25 | T47D (breast, adherent) | 0.936 | > 1000 | 0.93 | > 5120 | 0.883 | > 10000 | 0.972 | > 128 | 0.737 | 8780 |  | 
26 | U-2-OS (osteosarcoma, adherent) | 0.509 | 66.1 | 0.632 | 768 | 0.953 | > 10000 | 0.971 | > 128 | 0.985 | > 20000 |  | 
